± gives the standard deviation of the averaged measurements. The list shows a part of the results.
Each sequence was assayed on PfAP2-I AP2 domain 3 (GST-tagged) (assay: gcPBM binding intensity (ln(normalized median fluorescence intensity)); higher = stronger DNA binding).
How it was run: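 GST-tagged P. falciparum DNA-binding domains, expressed in E. coli (about 25 μg on average), were applied for 1 h to an Agilent 4 × 180k array of primer-extended double-stranded 36-bp intergenic genomic probes plus negative controls. The binding buffer was 1× PBS with 1% milk, 0.2 mg/ml BSA, 0.5% salmon testes DNA and 0.03% Triton X-100. Bound protein was detected with Alexa488 anti-GST antibody and scanned at 488 nm. Binding intensity is the highest Masliner-normalised natural-log median intensity across replicate spots of either probe orientation.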

Row | Sequence | gcPBM binding intensity (ln)
1 | AGCAATTTGGGGTGTACACACACCTTATTTAAATTA [CACACA_site1157] | 8.23 ± 0.22
2 | TCAAATTATTAAAATACACACATATTATATATATAT [CACACA_site2530] | 8.93 ± 0.25
3 | TCGAACGTATCATGTGTACACACAAATTGTTTTTTT [CACACA_site8623] | 8.13 ± 0.36
4 | CCTTGCCCCAGGAGTTCACACACATAATAGATTGTC [CACACA_site8138] | 7.88 ± 0.77
5 | GTATAAAAGTAACTAGTGCATTACATATGAATAAAA | 11.4 ± 0.6
6 | AGATATTTTTCTTAAGTACACACTAATTAGAAACTA [CACACA_site7897] | 7.89 ± 0.45
7 | TTTTTATTTTAAAAGAATAATTATCTAATATCTATA [CACACA_negctrl_site371] | 7.31 ± 0.52
8 | ATATTTTAAAATAATACACACAAAATGATTCTTAAT [CACACA_site2930] | 7.9 ± 0.72
9 | AACAATAAATTATTATGTACACATATATTATATATA [XGTACX_site4629] | 7.64 ± 0.28
10 | TATATTATATAATTTTAACACACAAGAATATAAACT [CACACA_site8378] | 8.05 ± 0.69
11 | ATAAGTATTACTAGTACACACAAGTTGTTAATCCTT [CACACA_site3324] | 8.04 ± 0.66
12 | CATAAATACAAATATACACACATATTTATATTTATA [CACACA_site7277] | 7.7 ± 0.34
13 | AATATGTTTTACGTCTCACACATATAGGTTTATATT [CACACA_site4713] | 7.75 ± 0.73
14 | ATTATACTTTCCATTCGTACATATATAAATAAATAA [XGTACX_site6245] | 8.25 ± 0.45
15 | ATATATAGATGTGAATTATTTATATTATCTATTCTT [CACACA_negctrl_site518] | 7.3 ± 0.47
16 | AAACTTCAAAAAGAGCACTTGAATTTTTTTTTTTTT [TGCATGCA_negctrl_site133] | 7.92 ± 0.39
17 | AAAAAGAACACAAAAAGTACAAAAATTATAATGATA [XGTACX_site2676] | 7.69 ± 0.61
18 | TCAAAGTAAAACAGGACATGCACAGAACATCCTGCC [TGCATGCA_site2] | 7.73 ± 0.93
19 | TACACAAAGTTACATACACACTAATATTTACACCAT [CACACA_site6602] | 8.07 ± 0.4
20 | TAAAGAAAAATATAAAGTACAAAAATAAAAAAAATA [XGTACX_site8226] | 7.88 ± 0.41
21 | AAAAAAAAAACATACACACACATATAGATTTATATG [CACACA_site6847] | 7.56 ± 0.49
22 | GTATTTATGTGTTTGGTGCAAGGGAGAATTTTTTTT | 8.87 ± 0.29
23 | ATATAATCTGAGTGCACACAAATAAATAAACATACA [CACACA_site422] | 10.6 ± 0.16

Row | Sequence | gcPBM binding intensity (ln)
24 | TTTTTTTTGTATTTTTCACACACACCGAAGTAAACA [CACACA_site8575] | 8.24 ± 0.42
25 | TAAAAGGATGCATATACACACATATAGATTTATATA [CACACA_site7336] | 7.74 ± 0.45
26 | TTAAATTCGTCATTTTAAAATAATACAAAAGTTCAA [CACACA_negctrl_site19] | 7.45 ± 0.45
27 | TTTTTCCTTATTAATACACACATTCACCTTTTAAAT [CACACA_site479] | 8.41 ± 0.62
28 | AGTTGCATACATTGAAGTACAGAACATTTATATATA [XGTACX_site240] | 7.86 ± 0.44
29 | CTTATGTGCATACCTACACACTTACCTATATTTATA [CACACA_site7411] | 8.62 ± 0.45
30 | TTACGATTTAAAATGGGTACATATATATGAAAAAAA [XGTACX_site545] | 7.96 ± 0.5
31 | TCACTAAACCATTAGAGTACTTGACATATAATGAGC [XGTACX_site3272] | 7.61 ± 0.52
32 | TATATATAAAAAACATGTACACAAATTTACATACAT [XGTACX_site4777] | 7.96 ± 0.21
33 | AAGAGTTAAAAAAATACACACATATATATTTTTTTA [CACACA_site1980] | 7.62 ± 0.65
34 | TTTTTGTATGCTTCCCGACTACATTATGCCATAAAT [CACACA_negctrl_site136] | 8.09 ± 0.69
35 | GATTATATATGAAAATGTACAAATATATATATATAT [XGTACX_site5963] | 9.34 ± 0.51
36 | AAAAAAAAAAAAAAAAAAAAAAAAAAATACATATGT [XGTACX_negctrl_site95] | 9.88 ± 0.47
37 | AAACCAAGGCACAATAATTAAATAAATAAAATCATG [GTGCAC_negctrl_site574] | 8.01 ± 0.35
38 | ATATAATTTTTCAAGTGTACTTTTTTTTTTTAACAT [XGTACX_site3050] | 8.27 ± 0.028
39 | ATTTATATATATATAGGTACACATATTTATATATAA [XGTACX_site8487] | 7.58 ± 0.41
40 | TCATTCATATGTTACACACACACACCCACATAAAAA [CACACA_site3245] | 8.24 ± 0.48
41 | CATAATTATGCAATTGCACACAACTATCATTTTTTT [CACACA_site2997] | 9.95 ± 0.73
42 | TTGTATCATATATTATGTACATATTTATTTATTATC [XGTACX_site7723] | 7.6 ± 0.42
43 | CCCATGTAATATTAAACACACACTCATATAACACAA [CACACA_site7906] | 8.08 ± 0.59
44 | ATATTATATCTAATCGTGCACAACTGTACATTTGTC | 10.5 ± 0.12
45 | ATATTTAAATATATTTATATATATAAAAAAAAATAT [GTGCAC_negctrl_site312] | 7.87 ± 0.52
46 | CAAAATATTTAAAAAAGTACTTAAAATAAATTCAAA [XGTACX_site6866] | 7.63 ± 0.45

Row | Sequence | gcPBM binding intensity (ln)
47 | AATATAAATAAAAACACACACACACGGATATTTATA [CACACA_site7134] | 8.12 ± 0.53
48 | CACACAACTATCAAGGTGCTAAAATGAAATAATATA [GTGCAC_site9871] | 9.46 ± 0.19
49 | AAGGTGGGAAAAAATAGTACACAACAAAAATGTATG [XGTACX_site8741] | 8.38 ± 0.18
50 | ACATATAAACTGTATACACACAAATATTGCATATAT [CACACA_site6804] | 8.55 ± 0.45
51 | ATATATCTATATGTGTGTACATATAAGTATTTATAT [XGTACX_site5333] | 7.86 ± 0.26
52 | TACATTCTAAATATTACACACTTTATAAAATAATAA [CACACA_site4069] | 7.72 ± 0.38
53 | ATATATATAAATATATGTACTAATATATACATATAT [XGTACX_site2289] | 8.04 ± 0.54
54 | AGAAAAGAGAAATGGGCACACACACCCATATTATAT [CACACA_site8433] | 7.72 ± 0.59
55 | ATATTTCTGTGTGGATGTACATTATTAGCAGGCTTT [XGTACX_site6496] | 8.12 ± 0.73
56 | AAAATATATACACAAACATGCATATAATAAATAAAT [TGCATGCA_site711] | 7.98 ± 0.83
57 | CAAAATAATAATAAAAGTACTAACATATTTATGAAA [XGTACX_site6078] | 7.79 ± 0.57
58 | TTCTTTTTATTTATATTTTCCCCTCTCTATAGCTAT [XGTACX_negctrl_site102] | 7.95 ± 0.65
59 | ATAATTCAAAAAAACACACAAATTACAAAATAAACT [CACACA_site6264] | 7.88 ± 0.58
60 | GATAATTTTTTTCTCACACACAAATATTTTAATCAT [CACACA_site3666] | 7.91 ± 0.61
61 | AAATATATTATATCATATATTAAAGCATATATTAAA [CACACA_negctrl_site1624] | 7.5 ± 0.39
62 | AGGTAAAAATGGTAAGTGCATTAATGATAAAAAATG | 11.1 ± 0.18
63 | GAATATTCACATACTTGTACATATATATATATATAT [XGTACX_site7302] | 9.36 ± 0.37
64 | AAAAAAAAAAAACACACACACACACCGACACATACA [CACACA_site5576] | 8.15 ± 0.23
65 | ATATTTTGGGGACTTTTTAAAAAAGAAGTATTAAAA [CACACA_negctrl_site1228] | 8.19 ± 0.27
66 | TGGCAAAATAGGCACACACACATATACCTATAGATT [CACACA_site7168] | 8.02 ± 0.4
67 | GTAAATATATAAACATGTACATATATAAATATATAA [XGTACX_site7262] | 7.84 ± 0.23
68 | TATAAGAATAAAAAGGGTACATAAAATAATAATATA [XGTACX_site2355] | 7.93 ± 0.51
69 | GTTTACATAGATAACTGTACGCAATGATATTAGACA [XGTACX_site1320] | 8.13 ± 0.028

Row | Sequence | gcPBM binding intensity (ln)
70 | CAAAAAAAATAAAACACACACACAAAAAAATAAAAA [CACACA_site466] | 7.84 ± 0.59
71 | TAATAATAGTACTGACATCGAAATATTATTAAAAAT [CACACA_negctrl_site255] | 7.71 ± 0.29
72 | TTTATATGATATATTACACACAAAAAAAAAAAAAAA [CACACA_site3549] | 7.99 ± 0.73
73 | TAGATACTTGTCATGGGTACATATCGTACCTTTTGG [XGTACX_site6781] | 7.5 ± 0.37
74 | CTCTTCTATATATAAGCATGCATTCATAATAATTTA [TGCATGCA_site679] | 8.04 ± 0.77
75 | ATTTCATTTTATAAGTGTACAATAAAAAAAAAAAAA [XGTACX_site8677] | 8.31 ± 0.57
76 | GTTTACATTAAAAATTGTACTCTGTATGAATAATAT [XGTACX_site80] | 7.64 ± 0.47
77 | CTTAAAAAAACCTTAACACACATAAACTCTAATTTA [CACACA_site7430] | 7.46 ± 0.39
78 | ATATAAACAGAAAATAGTACTTTATATTGAAAAAAA [XGTACX_site7183] | 7.72 ± 0.61
79 | GATGATACAAAGTAATGTACATAAATACACATATTG [XGTACX_site3177] | 7.79 ± 0.49
80 | AAATTTGATATAAAAAGTACAAAATGTTCCTCAGCT [XGTACX_site809] | 7.61 ± 0.67
81 | CATTATGTCGTAAATACACACATACCTATACATACA [CACACA_site6763] | 7.96 ± 0.61
82 | AATATATAGCTAAAAACACACAAATATATACGCATA [CACACA_site3608] | 7.67 ± 0.49
83 | CCATAAGATATATGTAGTACATATTATATATATATA [XGTACX_site2104] | 9.12 ± 0.014
84 | TATACACATATATAAACACACAAAAAAAAAAAAAAA [CACACA_site7041] | 7.99 ± 0.54
85 | TTAAAATTAAAAATGCGTACACATATACATAAAAAA [XGTACX_site1915] | 8.21 ± 0.4
86 | ATTAATTTTAATAAAGGTACACGTAGTTTTTTATTA [XGTACX_site7868] | 7.53 ± 0.4
87 | AACAAAACCTTATATGTACACACATATACATCACAC [CACACA_site9037] | 8.32 ± 0.24
88 | TATATATATATATATTGTACTGAACGTTTTTTTTTG [XGTACX_site8060] | 9.38 ± 0.18
89 | AATTTATAATTATAGAGTACATATTTTTAATATATA [XGTACX_site2566] | 7.43 ± 0.43

From the supplement of paper PMC11417369
